This is one part of the list.
test system: PF3D7_0420300 AP2 domain 1 (GST-tagged); experiment: gcPBM binding intensity (ln(normalized median fluorescence intensity)); higher = stronger DNA binding
In short: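 Probes on an Agilent 4 × 180k array were primer-extended, double-stranded and 36 bp long, taken from intergenic genomic regions, with negative controls added. GST-tagged P. falciparum DNA-binding domains from E. coli, about 25 μg on average, were applied to the array for 1 h in 1× PBS containing 1% milk, 0.2 mg/ml BSA, 0.5% salmon testes DNA and 0.03% Triton X-100. Binding intensity, obtained after Alexa488 anti-GST antibody detection and a 488 nm scan, is the highest Masliner-normalised natural-log median intensity across replicate spots of either probe orientation.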

| Sequence | gcPBM binding intensity (ln) |
| --- | --- |
| TATATATATATATAATGTACAAACTCCTTTATATAT [XGTACX_site4545] | 9.22 |
| TCATTCAAAAAAAATCAACACACAGTTACATAGCTC [CACACA_site8700] | 9.54 |
| GTTTTTTTTATATATTGTACAAATAATATATTATAT [XGTACX_site29] | 9.42 |
| TTTTAAAAAAAAAAAATAAATAAATAAGATATTATC [CACACA_negctrl_site1791] | 8.91 |
| TTTTAAAACTACATTGGTACACAATAAAAAAAAAAA [XGTACX_site2793] | 9.14 |
| TCATATATATTATACACACACATATATAAATATATA [CACACA_site967] | 9.7 |
| AAAAAAAAAAAAAAAGCACACATATAAATATGAATA [CACACA_site8391] | 9.18 |
| AAATTTAAATAATGTGCGCATCTTAATATATATAAG [GTGCAC_site9890] | 9.19 |
| AAATAATATTGAAAAGTGCATATTTTTGTTGATATA | 9.1 |
| TCTTATAACAAAAAAAAATAAAAAATAAAACTATAT [GTGCAC_negctrl_site11] | 9.28 |
| CATATAAATAGACACACACACACATATAAATAAATA [CACACA_site7156] | 10.3 |
| TTTTCTATTTAATTGGTGCACTGATATATACACATA [GTGCAC_site9533] | 9.26 |
| AGGTTAAAAATAAATACACACATTTGATGTCTGTAT [CACACA_site6596] | 9.49 |
| TTATGTTATATATACACACACAAAAGAAAAAAAAAA [CACACA_site2987] | 9.7 |
| ATATAACATATTAATAATATATTTATAATATGTTTA [GTGCAC_negctrl_site168] | 8.95 |
| TTTTGAGAATATATGGGTACAAATAAATAAAAATAT [XGTACX_site1933] | 9.26 |
| AAAAAACATACATACACACACATAAATATATATATT [CACACA_site2699] | 10.1 |
| ATATATATATAAAGGAGTACATACATTAAAAAAAAA [XGTACX_site1095] | 9.42 |
| TCTTATTTAAAAATAGCACACATTATATATATATAT [CACACA_site8916] | 9.15 |
| TCCTTGTTTGGTTTTTTTTTTTCTTCTTTTTTTTTT [CACACA_negctrl_site1355] | 9.78 |
| ACACATACACATTAGGTGCACATAATTCAATATTAC [GTGCAC_site9862] | 9.49 |
| TTAAATGTTATATATTGTACATATAATATATGTATT [XGTACX_site1492] | 9.23 |

| Sequence | gcPBM binding intensity (ln) |
| --- | --- |
| TATGAAACGATATATGTGCACATGAGGGAATATAGA [GTGCAC_site9611] | 9.57 |
| TATAAATCAATATGTACACACATATACATGTTGAAT [CACACA_site7460] | 9.33 |
| TAATAAAAAAAGTGCACACACATAATATATATATAT [CACACA_site3340] | 9.65 |
| TTAGCAACTATTACTACACACATTTTTATATAATTT [CACACA_site1372] | 9.64 |
| CATATAATATATCAATGTACATATATATTTTATAAA [XGTACX_site5901] | 9.11 |
| ATTGTCAAAACACGCACACACATATACATAATAACA [CACACA_site1742] | 9.85 |
| ATTATATACATATATATTGTATATACTATACATATG [XGTACX_negctrl_site545] | 9.29 |
| ATATATACCTATAACACACACATATTTATATTTATA [CACACA_site7257] | 9.78 |
| TCATAGCTAGGATAACGTACAGAAAAGTGAAAAATT [XGTACX_site3322] | 9.48 |
| ACACATGTATTTGGTGCATGTTGTTAAAAAAATATT [TGCATGCA_site795] | 9.1 |
| TTTTTTTTTTGTTGTTGTACTCTTATATTTTTATAT [XGTACX_site6178] | 9.7 |
| ATTCTAGTAATATATGTATATTTATATATGTATGTG [XGTACX_negctrl_site419] | 9.36 |
| GATCTATTGAGTGATACATGCAGGAAAATTAAAAAC [TGCATGCA_site729] | 9.24 |
| TATGTATGTATGTATGTATGCATGTCTAACACCTAA [TGCATGCA_site360] | 8.98 |
| TTTTTTTTTTTATGCTCACACATTAATTTTTATACA [CACACA_site4527] | 9.38 |
| AAAAAGAAAAAAGAAAGTACAAATATACACATTTTT [XGTACX_site3343] | 9.35 |
| TTTTTATTATAAGGTCGTACAATTGTAATTATTGTA [XGTACX_site1413] | 9.23 |
| ATAAAAGATTTATACATACACACATATTATATTCAC [CACACA_site3714] | 9.67 |
| TTTTTTTTTTTTTTTTAACACACATATATATATTTT [CACACA_site8585] | 9.02 |
| ATATATATGTATATAACATGCAACATTTAATAATAA [TGCATGCA_site1018] | 9.32 |
| ATATAAATAAAGAAATATATATATATATATATATAT [GTGCAC_negctrl_site668] | 9.09 |
| AACGCTTATTAGTTGTTGTATATGTGTTCACATATT [CACACA_negctrl_site379] | 9.37 |

| Sequence | gcPBM binding intensity (ln) |
| --- | --- |
| AAAAAACACGGACACACACACATATACATACATACA [CACACA_site5470] | 10.1 |
| AATATAAATAATGTTAAACACACATACCGATATATA [CACACA_site8869] | 9.66 |
| ATTTATAGAGCTATATGTACATATATATATATTATT [XGTACX_site3704] | 9.27 |
| AAAAGGTGGAAAAATGCATGCAGGCTATTCTATATA [TGCATGCA_site1034] | 9.28 |
| TTCCACCAATATATATGTACTTATAATATATATATA [XGTACX_site8700] | 9.24 |
| AATTACATATAATACTGTACGCTAATAAGAAAAAAA [XGTACX_site7413] | 9.27 |
| TAATTATGTATGAACTGTACAGGTTATTTTATTTTA [XGTACX_site5204] | 9.14 |
| TAAAATTTAAATTATACACACTTAAGTAACATCATC [CACACA_site4450] | 9.45 |
| AAAAAATACCTCTATAGTACATATATATAATATTTA [XGTACX_site7222] | 9.2 |
| AAAAAAAATTTATTTGCATGCAAAAAAAAAAAAAAA [TGCATGCA_site67] | 8.84 |
| ACAATATAGATTAAAAGTACAAATAGTAAATTATAT [XGTACX_site3165] | 9.52 |
| AAAACAATATACTGTAGTACTGATGATATATATATA [XGTACX_site7798] | 9.33 |
| ATAAAAAAAAATAGCACACATAAATATATTATATAT [CACACA_site767] | 9.63 |
| AATCATCTCATAAAAATTAATTAGTGTATGTCTTTT [TGCATGCA_negctrl_site416] | 9.23 |
| CTACTTATAAATAGAACACACATAAGTGTATTTGTA [CACACA_site3759] | 9.23 |
| ATTTAAATACAAAATTGTACTTTTCTATATTTAACA [XGTACX_site6146] | 9.14 |
| AAATTTTAAATAGTATGTACGTATGAAATATATATG [XGTACX_site7511] | 9.36 |
| ACCCATTTAACAAAATGTACATTATTATAATTACTT [XGTACX_site7105] | 9.35 |
| AAAATTTTACAGAAGGTGCGTATATTTTCCTGCTTA [GTGCAC_site9643] | 9.26 |
| TTTGGAAAAAAATTATTTAAACGATATGAATTGATG [XGTACX_negctrl_site506] | 8.89 |
| TACAATATTTTGAGACGTACATATATACATTTACAT [XGTACX_site5880] | 9.24 |
| AAATTAAAATAAAAATGTACATATAAAGACACAACT [XGTACX_site3132] | 9.86 |

| Sequence | gcPBM binding intensity (ln) |
| --- | --- |
| CTTACCAAAAGACACACACACACAAGATATATAAAT [CACACA_site6964] | 10.2 |
| TGAACTTACTTGGACATACACACATATATATATATA [CACACA_site2977] | 9.65 |
| TGTAAGTCGTTATAAGCACACACATAAATAAAAATA [CACACA_site8448] | 9.59 |
| TATATATATATACCAACACACATACAGATATATATA [CACACA_site5060] | 9.7 |
| TTTATATACAAAAATGCACACGAAAAGTAATATATA [CACACA_site9387] | 9.56 |
| AAGCCCATTATTAAATGTACAAAATTTTATAAACTA [XGTACX_site7800] | 9.06 |
| CAGTGCCAAATTAGCACACACATATATACATGAATT [CACACA_site2814] | 9.5 |
| GTATATATGTATATATGTACATATATATAATATATT [XGTACX_site56] | 9.16 |
| TAAAACATATATACAAGTACACAAAGGATATATATA [XGTACX_site3710] | 9.55 |
| TATAGGTATTTATATACACACATATTCTTTTTACAC [CACACA_site6686] | 9.63 |
| TTTTGTTATGGTTTGATGCACTTATATATAAATATT [GTGCAC_site9705] | 9.6 |
| CACAGTGATATAAAAACACACATGAATTATAATTTC [CACACA_site1667] | 9.43 |
| ATGTAGATAAAACGTGTGCACATGTTTTTTGTTATT | 9.86 |
| ATATATATATATATATGTACTTATTACCAATGTTAG [XGTACX_site1896] | 9.23 |
| AATATATGATAATTTTTTTTTTTTTTTTTTAAATAT [CACACA_negctrl_site452] | 8.89 |
| AAAAAATGTTAAAAAAGTACTTTCTTTATTTAATAA [XGTACX_site2908] | 8.96 |
| AACAATTGTTAAAGGTGTACCATATGTATATAAGAA [XGTACX_site5723] | 9.39 |
| AGACGTAATAATTGTTGTACATAAAAAAATAAGAAA [XGTACX_site7594] | 9.23 |
| ATGATATTATAAAAAAGTACATATGTATATAATTAT [XGTACX_site7652] | 9.38 |
| TGTGTTAGCAAAAAAGTGCACAGGGAAAAAAAAATA [GTGCAC_site9397] | 9.25 |
| CATTTAGTTCATACTATGCACACTACGTATATTTTT [CACACA_site2694] | 9.63 |
| TGTATAAAAAACTAATGTACAAATGACAAGATATCT [XGTACX_site4600] | 9.34 |

From the supplement of paper PMC11417369
